From patent US12497462 (IMMUNITYBIO, dated 2025)

Target: T1, Human adenosine deaminase (ADA) (human, UniProt P00813 1-363, limits assumed)
T1 construct: Bought reagent; also called Human ADA (R&D systems)
T1 sequence (looked up): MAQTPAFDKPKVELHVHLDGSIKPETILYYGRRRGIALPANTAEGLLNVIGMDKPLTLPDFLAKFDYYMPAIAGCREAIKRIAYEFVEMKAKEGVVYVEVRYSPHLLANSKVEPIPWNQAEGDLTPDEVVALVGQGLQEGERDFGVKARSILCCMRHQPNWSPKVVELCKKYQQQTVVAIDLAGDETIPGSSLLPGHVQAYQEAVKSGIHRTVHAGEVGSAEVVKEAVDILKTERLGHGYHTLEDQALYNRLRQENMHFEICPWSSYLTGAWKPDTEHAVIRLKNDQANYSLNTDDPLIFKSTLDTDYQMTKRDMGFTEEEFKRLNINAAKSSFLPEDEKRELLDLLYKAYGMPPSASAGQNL
Experiment: competition ELISA on coated CD26-Fc (5 µg/mL): ADA is varied and the blocked molecule is biotinylated CD26Ab-01D at 5 nM, read with SAHRP/ABTS

binding result: binds
B1: Human CD26-Fc fusion protein (Fc fusion)
chain: NKGTDDATADSRKTYTLTDYLKNTYRLKLYSLRWISDHEYLYKQENNILVFNAEYGNSSVFLENSTFDEFGHSINDYSISPDGQFILLEYNYVKQWRHSYTASYDIYDLNKRQLITEERIPNNTQWVTWSPVGHKLAYVWNNDIYVKIEPNLPSYRITWTGKEDIIYNGITDWVYEEEVFSAYSALWWSPNGTFLAYAQFNDTEVPLIEYSFYSDESLQYPKTVRVPYPKAGAVNPTVKFFVVNTDSLSSVTNATSIQITAPASMLIGDHYLCDVTWATQERISLQWLRRIQNYSVMDICDYDESSGRWNCLVARQHIEMSTTGWVGRFRPSEPHFTLDGNSFYKIISNEEGYRHICYFQIDKKDCTFITKGTWEVIGIEALTSDYLYYISNEYKGMPGGRNLYKIQLSDYTKVTCLSCELNPERCQYYSVSFSKEAKYYQLRCSGPGLPLYTLHSSVNDKGLRVLEDNSALDKMLQNVQMPSKKLDFIILNETKFWYQMILPPHFDKSKKYPLLLDVYAGPCSQKADTVFRLNWATYLASTENIIVASFDGRGSGYQGDKIMHAINRRLGTFEVEDQIEAARQFSKMGFVDNKRIAIWGWSYGGYVTSMVLGSGSGVFKCGIAVAPVSRWEYYDSVYTERYMGLPTPEDNLDHYRNSTVMSRAENFKQVEYLLIHGTADDNVHFQQSAQISKALVDVGVDFQAMWYTDEDHGIASSTAHQHIYTHMSHFIKQCFSLP[human IgG1 Fc not written out]
notes: also called CD26/beads
